# Source: PubChem BioAssay AID1460 (National Center for Advancing Translational Sciences (NCATS), 2008)
# Out of some 270,000 compounds screened, about 5,800 (2.1%) were called active. This list was built around the results that the source calls inconclusive (neither active nor inactive); the mix of calls is not that of the screen. The call rests on the fitted dose curve; in most records, active means well fitted inhibition curve with a large enough effect; inconclusive means small, poorly fitted or top-dose-only effect; inactive means flat fitted curve, though single readings scatter. Potencies of inconclusive entries are doubtful fits and often do not repeat.
# Target: Microtubule-associated protein tau (Homo sapiens) (UniProt P10636)
# Experiment: qHTS for Inhibitors of Tau Fibril Formation, Thioflavin T Binding; further: nearly all actives have a fitted effect of over 55% in size
# Conditions: recombinant tau K18 P301L (four-repeat tau fragment), heparin-induced fibrillization, ThT fluorescence; series mostly up to 57.4 µM
# Method in brief: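 Heparin-induced (20 uM) aggregation of recombinant human K18 P301L tau, 15 uM unlabeled with 0.24 uM labeled, pH 7 acetate buffer, 6 hr at 37 C with compound. Fibrils quantified by 30 uM ThT fluorescence after 1 hr ambient incubation.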
# Potency means the concentration at half of the fitted maximal effect; tags describe the fitted curve by direction and shape.
# Sequence of UniProt P10636 (P10636 whole entry, looked up): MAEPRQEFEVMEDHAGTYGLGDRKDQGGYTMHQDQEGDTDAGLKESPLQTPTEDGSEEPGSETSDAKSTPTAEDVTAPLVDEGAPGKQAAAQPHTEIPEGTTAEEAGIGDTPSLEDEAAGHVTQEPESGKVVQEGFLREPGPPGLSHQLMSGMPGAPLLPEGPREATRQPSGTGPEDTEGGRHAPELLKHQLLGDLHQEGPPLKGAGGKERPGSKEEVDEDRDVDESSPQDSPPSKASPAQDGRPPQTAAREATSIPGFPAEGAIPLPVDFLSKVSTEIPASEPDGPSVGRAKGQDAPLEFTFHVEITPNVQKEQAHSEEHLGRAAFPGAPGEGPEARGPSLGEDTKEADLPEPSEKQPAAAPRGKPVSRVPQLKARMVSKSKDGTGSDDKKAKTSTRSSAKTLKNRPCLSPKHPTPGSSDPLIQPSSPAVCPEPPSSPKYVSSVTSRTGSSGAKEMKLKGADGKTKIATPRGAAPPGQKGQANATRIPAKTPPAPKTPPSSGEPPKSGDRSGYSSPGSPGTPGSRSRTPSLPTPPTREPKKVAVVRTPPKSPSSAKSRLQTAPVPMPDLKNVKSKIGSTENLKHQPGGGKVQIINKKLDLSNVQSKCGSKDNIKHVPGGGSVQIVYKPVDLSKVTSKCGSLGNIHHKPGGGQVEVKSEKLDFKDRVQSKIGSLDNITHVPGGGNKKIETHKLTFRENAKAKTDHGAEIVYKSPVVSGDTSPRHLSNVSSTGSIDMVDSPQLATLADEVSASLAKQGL
row,SMILES,Potency
1,COc1ccc(/C=N/NC(=O)c2cc(-c3ccc4c(c3)OCO4)n[nH]2)cc1OC,"inconclusive: 0.398 µM [inhibitor, full curve, poor fit]"
2,Cc1cc(C)cc(NC(=O)c2ccc(CSc3nnc(C)s3)cc2)c1,"inconclusive: 15.8 µM [inhibitor, partial curve]"
3,COc1cc(/C=C(\C#N)c2nc3ccc(C)cc3[nH]2)c([N+](=O)[O-])cc1OC,active: 14.1 µM
4,Cc1cc(=O)c2c(C)ccc(C)c2[nH]1,inactive
5,COc1cc(OC)cc(C(=O)NNc2nc3cc4c(cc3s2)OCO4)c1,"inconclusive: 20 µM [inhibitor, partial curve]"
6,Cc1ccccc1NC(=O)c1cccc(OCc2c(C)noc2C)c1,"inconclusive: 44.7 µM [inhibitor, single point]"
7,CCSc1nc2sc3c(c2c(=O)n1CC)CC(C)(C)OC3,"inconclusive: 25.1 µM [inhibitor, partial curve, poor fit]"
8,Cc1cc(C)n(-c2nc(NCCCO)c3c4c(sc3n2)CCCC4)n1,"inconclusive: 15.8 µM [inhibitor, partial curve, poor fit]"
9,C=CC[C@@H]1C=C[C@H](O/N=C/c2ccc(C(=O)N3[C@H](c4ccc(C)cc4)[C@@H](C)CC[C@H]3C(=O)OC)cc2)[C@@H](CO)O1,"inconclusive: 20 µM [inhibitor, partial curve]"
10,COc1cc(C)c(CNc2ccc(OC)c(OC)c2)cc1C,"inconclusive: 14.1 µM [inhibitor, partial curve]"
11,COc1ccccc1Nc1nc(-c2sc(NC(=O)c3ccco3)nc2C)cs1,active: 3.55 µM
12,CN1CCc2cc(Cl)c(O)cc2C(c2ccccc2)C1 (configuration not stated),inactive
13,COc1cc2[nH]c(=O)n(Cc3ccc(C(=O)NCc4ccccc4)cc3)c(=O)c2cc1OC,inactive
14,Cc1ccc(C)c(S(=O)(=O)Nc2nc3ccc(S(N)(=O)=O)cc3s2)c1,inactive
15,Cc1ccc(/C=C/C(=O)N2CCN(S(=O)(=O)c3c(C)c(C)cc(C)c3C)CC2)o1,"inconclusive: 22.4 µM [inhibitor, single point]"
16,C/C(=N/NC(=S)Nc1cccc(C)c1)c1cccc([N+](=O)[O-])c1,"inconclusive: 17.8 µM [inhibitor, partial curve]"
17,CCCCNC(=S)NC(=O)c1ccc([N+](=O)[O-])cc1,"inconclusive: 15.8 µM [inhibitor, single point]"
18,C/C(=N\O)c1ccc(N2C(=O)C3CC=C(Cl)CC3C2=O)cc1 (configuration not stated),"inconclusive: 25.1 µM [inhibitor, partial curve]"
19,Cc1cccnc1NC(=O)COc1ccc2oc3c(c2c1)CCCC3,"inconclusive: 17.8 µM [inhibitor, partial curve]"
20,N#CC1=C(S)N(c2ccc(F)cc2)C(c2ccco2)NC1=O (configuration not stated),active: 39.8 µM
21,COc1ccc(N2CCN(Cc3nc4scc(-c5ccccc5)c4c(=O)[nH]3)CC2)cc1,"inconclusive: 25.1 µM [inhibitor, partial curve, poor fit]"
22,CC(C)(O)C1CC[C@@]2(C)C3CCC4[C@@]5(C)CCCC(C)(C)C5C(O)C[C@]4(C)[C@]3(C)CC[C@@H]12 (some centres not stated),inactive
23,O=Cc1nc(-c2ccc(Cl)cc2)n2ccccc12,inactive
24,Cc1c(Cl)c(-c2n[nH]c(=S)n2CC(C)C)nn1C,"inconclusive: 2.82 µM [inhibitor, full curve, poor fit]"

row,SMILES,Potency
1,CC1Cc2ccccc2N1C(=O)COC(=O)Cn1nnc(-c2ccccc2)n1 (configuration not stated),inactive
2,COC(=O)c1sccc1NC(=O)c1ccc(OC)cc1,"inconclusive: 8.91 µM [inhibitor, partial curve, poor fit]"
3,COc1ccc(N(C(C)C(=O)NCc2ccco2)S(C)(=O)=O)cc1 (configuration not stated),"inconclusive: 31.6 µM [inhibitor, partial curve]"
4,Cc1ccccc1NN=Nc1nc2c([nH]1)c(=O)n(C)c(=O)n2C,"inconclusive: 28.2 µM [inhibitor, partial curve]"
5,S=C(Nc1ccc(Cl)c(Cl)c1)NC1CCCCC1,inactive
6,COc1ccc(N2CCN(C(c3ccccc3)c3sc4nc(C)nn4c3O)CC2)cc1 (configuration not stated),inactive
7,Cc1nc(CCN2C(=O)c3ccccc3C2=O)cs1,inactive
8,CCc1ccc(NC(=O)c2cc(S(=O)(=O)N3CCCCCC3)ccc2F)cc1,inactive
9,Cc1ccc(NC(=O)Nc2nnc(SCC(=O)Nc3ccc(F)cc3F)s2)cc1,inactive
10,C=CCn1c(CNc2ccccc2)nnc1SCC(=O)N/N=C/c1ccc(O)cc1O,inactive
11,O=C(CSc1nnc(-c2ccc(F)cc2)c2ccccc12)NCC1CCCO1 (configuration not stated),"inconclusive: 31.6 µM [inhibitor, single point]"
12,CN(C)c1ccc(N=C/C=C2\N(C)c3ccccc3C2(C)C)cc1,active: 5.01 µM
13,COc1cc2c(cc1O)C(SC)=NC(C)(C)C2,"inconclusive: 22.4 µM [inhibitor, partial curve]"
14,Cc1nn(C(=O)c2cccc(F)c2)c(C)c1S(=O)(=O)N1CCOCC1,inactive
15,COc1ccccc1/C=C/C=C1\Oc2c(ccc(O)c2CN(C)C)C1=O,"inconclusive: 10 µM [inhibitor, partial curve]"
16,COc1ccc(OCC(=O)Nc2ccc3nn(-c4ccc(OC)cc4)nc3c2)cc1,"inconclusive: 2 µM [inhibitor, full curve]"
17,Cc1ccc(C(C[N+](=O)[O-])c2c(C)cc3ccccn23)cc1 (configuration not stated),"inconclusive: 35.5 µM [inhibitor, single point]"
18,CCn1c(CSc2nc(C)cc(C)n2)nnc1SCC(=O)N1CCCc2ccccc21,inactive
19,CC1=C(C(=O)OCc2ccc(C)cc2)C(c2cccc(F)c2F)CC(=O)N1 (configuration not stated),inactive
20,CNc1cccccc1=S,active: 12.6 µM
21,Cc1cc(C(=O)N2CCN(c3ccc([N+](=O)[O-])cc3)CC2)no1,"inconclusive: 14.1 µM [inhibitor, partial curve]"
22,Cn1nc(C(=O)Nc2sccc2C(N)=O)ccc1=O,"inconclusive: 17.8 µM [inhibitor, partial curve, poor fit]"
23,CC(C)Oc1ccc(C(=O)CCN2CCCCC2)cc1,"inconclusive: 14.1 µM [inhibitor, partial curve]"
